From PMC4336329 (PLoS ONE, 2015)
Screen size: about 310,000 compounds; about 14,000 (4.5%) showed an effect of 50% or more. The effect is printed as a negative number. The list shows a part of the results.

Each molecule was assayed against human ether-à-go-go-related gene (hERG) potassium channel (human, UniProt Q12809) (assay: primary screen, population patch clamp on CHO cells stably expressing hERG).
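Also: peak tail current of the secondary pulse compared with the same well before compound.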

Sequence of human ether-à-go-go-related gene (hERG) potassium channel (Q12809 whole entry, looked up): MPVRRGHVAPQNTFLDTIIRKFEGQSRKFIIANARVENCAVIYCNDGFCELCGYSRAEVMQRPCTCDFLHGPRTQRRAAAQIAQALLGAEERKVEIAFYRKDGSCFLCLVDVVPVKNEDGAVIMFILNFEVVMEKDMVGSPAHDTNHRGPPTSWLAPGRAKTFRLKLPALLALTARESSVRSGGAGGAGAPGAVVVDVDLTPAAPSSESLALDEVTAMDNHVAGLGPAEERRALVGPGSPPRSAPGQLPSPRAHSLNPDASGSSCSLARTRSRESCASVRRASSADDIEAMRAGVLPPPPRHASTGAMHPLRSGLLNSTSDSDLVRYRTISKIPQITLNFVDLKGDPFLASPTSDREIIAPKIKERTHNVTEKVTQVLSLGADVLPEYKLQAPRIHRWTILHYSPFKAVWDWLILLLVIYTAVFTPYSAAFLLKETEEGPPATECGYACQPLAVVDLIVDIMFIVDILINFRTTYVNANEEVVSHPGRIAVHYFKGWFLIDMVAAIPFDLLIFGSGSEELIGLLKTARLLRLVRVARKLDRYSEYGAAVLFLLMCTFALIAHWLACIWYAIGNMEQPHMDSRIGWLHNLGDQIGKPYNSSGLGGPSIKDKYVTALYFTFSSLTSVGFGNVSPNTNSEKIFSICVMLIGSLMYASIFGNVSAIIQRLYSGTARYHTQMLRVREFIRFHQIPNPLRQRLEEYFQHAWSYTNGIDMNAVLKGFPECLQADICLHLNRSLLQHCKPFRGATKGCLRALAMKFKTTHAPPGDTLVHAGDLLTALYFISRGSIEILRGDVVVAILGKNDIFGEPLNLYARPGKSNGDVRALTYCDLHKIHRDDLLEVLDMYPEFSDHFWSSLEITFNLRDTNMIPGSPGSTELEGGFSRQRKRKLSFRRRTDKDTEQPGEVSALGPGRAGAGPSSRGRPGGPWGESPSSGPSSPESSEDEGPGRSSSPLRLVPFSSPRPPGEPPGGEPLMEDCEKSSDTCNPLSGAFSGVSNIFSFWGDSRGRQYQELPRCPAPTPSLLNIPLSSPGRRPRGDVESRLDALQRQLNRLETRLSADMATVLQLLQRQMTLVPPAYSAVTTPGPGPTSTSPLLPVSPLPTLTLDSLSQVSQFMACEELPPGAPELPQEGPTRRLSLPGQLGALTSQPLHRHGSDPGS

Compound | hERG current change (%, negative = inhibition) at 10uM
CCCn1nc(C(=O)NCCN2CCOCC2)c2ccccc2c1=O | 9.71%
Cc1occc1C(=O)NCc1nc(-c2ccc(Cl)cc2)no1 | 11%
CC(C)O.CCCC1(CCC)NC(=O)N(CC(=O)N2CCN(C(=O)c3ccco3)CC2)C1=O | 5%
CN(C(=S)NC(=O)CCCOc1ccc(Cl)cc1Cl)c1ccccc1 | -2.14%
COC(=O)c1cc(NC(=O)CC2SC(=Nc3ccccc3)N(CCc3c[nH]c4ccccc34)C2=O)cc(C(=O)OC)c1 (stereo not drawn) | 12%
COc1ccc(/C=N/NC(=O)c2cc(C)oc2C)cc1OCc1ccccc1 | 7.58%
CN(CC1CCCO1)S(=O)(=O)c1ccc(C(=O)Nc2nnc(-c3ccccc3)o2)cc1 (stereo not drawn) | 16.4%
O=C(O)C(=O)O.O=[N+]([O-])c1cccc(CN2CCN(Cc3ccco3)CC2)c1 | -4.34%
Cc1nn(CC(=O)O)c(C)c1N | 3.42%
COc1ccc(/C=C/C(=O)NCC(=O)N/N=C/c2cc(Br)ccc2OC)cc1 | 7.98%
Cc1cnc(NC(=O)CSc2nc3ccccc3c(=O)[nH]2)s1 | -7.72%
CCCn1cc(SCC(=O)NCC2CCCO2)c2ccccc21 (stereo not drawn) | 4.17%
CCC(=O)Nc1nonc1-c1nc2ccccc2n1N(C(=O)CC)C(=O)CC | 11.4%
COc1ccccc1NC(=O)c1ccc(S(=O)(=O)N(C)c2ccccc2)cc1 | -3.47%
COCCCN1C(=O)c2ccc(C(=O)OCC(=O)N(CCC#N)c3cc(C)cc(C)c3)cc2C1=O | -20.5%
Cc1[nH]nc2c1C1(CCN(C(=O)OCc3ccccc3)CC1)C(C#N)=C(N)O2 | -29.8%
CCOC(=O)c1c(NC(=O)COc2ncnc3ccccc23)sc(C(C)=O)c1C | -5.43%
Cc1cc([N+](=O)[O-])cc(C)c1OCC(=O)N/N=C/c1ccc(OC(=O)c2ccccc2Br)cc1 | 4.23%
N#Cc1ccc(/C=N/N=C(N)N)cc1 | -23.6%
C=CCN1CCN(C(CCC)c2nnnn2Cc2ccco2)CC1 (stereo not drawn) | 10%
COc1ccc(N/N=C(\C=N\O)C(=O)c2ccc(OC)cc2)cc1 | 1.78%
Cc1cccc(NC(=O)Cn2c([N+](=O)[O-])cnc2C)c1C | 2.49%

Compound | hERG current change (%, negative = inhibition) at 10uM
Cc1cc2cc(C)c3nnc(SCC(=O)NCc4ccco4)n3c2cc1C | -5.73%
Cc1nn(CCc2nn[nH]n2)c2nc(-c3ccc(C4CCCCC4)cc3)cc(C(F)(F)F)c12 | 29.3%
CCc1ccc(CNc2ccc3c(c2)ncn3C(C)(C)C)cc1 | -36.1%
Cl.Oc1ccc(Cl)cc1CNCC1CCCCC1 | 3.14%
COC(=O)c1ccc(C2/C(=C(/O)c3ccc4c(c3)CC(C)O4)C(=O)C(=O)N2Cc2cccnc2)cc1 (stereo not drawn) | 8.97%
O=C(NCC(=O)N(c1cccnc1)C(C(=O)NC1CCCC1)c1ccco1)c1cccs1 (stereo not drawn) | 4.81%
COc1cc(/C=N/NC(=O)c2cc(C34CC5CC(CC(C5)C3)C4)[nH]n2)ccc1O | -26.6%
Cc1cccc(NC(=O)c2cccc(NC(=O)c3ccccc3)c2)n1 | -36.9%
Cc1cc(/C=C(\C#N)C(=O)O)c(C)n1CCC(C)C | 10.5%
c1c2c(cc3sc(N4CCOCC4)nc13)OCCO2 | -6.66%
Cc1ccccc1-n1c(-c2cccnc2)n[nH]c1=S | 18.1%
Cc1ccc([N+](=O)[O-])cc1Nc1nc(N2CCCC2)nc(N2CCCC2)n1 | 19.2%
COC(=O)c1noc(-c2ccc(C)cc2)n1 | -3.95%
O=C(CNC(=O)c1ccccc1F)OCC(=O)N1CCCc2ccccc21 | -7.61%
COc1ccc(S(=O)(=O)NC(CC(=O)N2CCC3(CC2)OCCO3)c2ccco2)cc1 (stereo not drawn) | 3.91%
COC[C@]12CN(C)C3C4[C@H](OC)[C@H]1C3([C@@H](OC)C[C@H]2O)[C@@H]1C[C@@]2(O)[C@H](OC(=O)c3ccccc3)[C@@H]1[C@]4(OC(C)=O)[C@@H](O)[C@@H]2OC | 8.52%
CC(=O)Nc1ccc(NC(=O)CCNC(=O)c2ccccc2Cl)cc1 | 20.9%
CCS(=O)(=O)N1CCC(C(=O)NCCCN2CCCCCC2)CC1 | -5.17%
Cc1cc(C)c(OCCCON2C(=O)CCC2=O)c(Br)c1 | -2.89%
c1ccc(CNn2nnnc2-c2ccccc2)cc1 | -0.0934%
COc1cc(C(=O)Nc2ccc(Br)cc2C(=O)c2ccccc2Cl)cc(OC)c1OC | 12.2%
CCN(CC)C(=O)Cn1cc(S(=O)(=O)CC(=O)Nc2cc(OC)ccc2OC)c2ccccc21 | -8.35%

Compound | hERG current change (%, negative = inhibition) at 10uM
CCOc1ccc2nc(NCCNC(=O)C(C)C)c(C)cc2c1 | -61%
COc1ccc(N2CCN(c3ncnc4c3nnn4Cc3ccccc3Cl)CC2)cc1 | 9.59%
C=CCN1C(=O)/C(=C\c2ccc(OC(=O)c3ccco3)c(OC)c2)SC1=S | 14.9%
Cc1[nH]n(-c2ccccc2)c(=S)c1C=Nc1ccc([N+](=O)[O-])cc1 | 16.8%
O=C(/C=C/c1ccco1)N1CCN(S(=O)(=O)c2ccc(F)c(F)c2F)CC1 | -2.46%
CCOC(=O)/C(=C\c1ccc(OC(F)F)cc1)C1=Nn2c(nnc2-c2ccc(Cl)cc2)SC1 | -0.631%
Cc1cc(OCC(=O)OCC(=O)NCCN2C(=O)CSC2=O)ccc1Cl | -2.65%
O=C(O)C(Cc1ccccc1)N1C(=O)CCC1=O (stereo not drawn) | 14.4%
COCCCN(C(=S)Nc1cc(C)cc(C)c1)C(C)c1ccncc1 (stereo not drawn) | -41%
COc1ccc2c(c1OC)C(=O)N(c1cccc(C)c1)C2 | 4.15%
Cc1ccc(S(=O)(=O)NCc2cccnc2)cc1 | 5.22%
O=C(O)C(=O)O.c1ccc(-c2ccccc2OCCOCCN2CCNCC2)cc1 | 2.27%
COCCNC(=O)CCCn1c(=O)c2cc(OC)c(OC)cc2n(CC(=O)Nc2ccccc2OC)c1=O | 5.35%
O=C(Cn1nnc2ccccc21)OCC(=O)c1ccccc1 | 18.2%
CCCCCCC(=O)N1C/C=C\C(c2ccc(OC)cc2)N(Cc2ccc(F)cc2)C(=O)[C@H]1Cc1ccccc1 (stereo partly drawn) | -0.246%
COc1cnc(-c2ccccn2)nc1Oc1ccccc1Cl | 18.3%
Cc1cc(C)cc(OCC(=O)NCCN2CCOCC2)c1 | -0.76%
CC(C)(C)c1ccc(C2=NC(=O)C(CC(=O)O)S2)cc1 (stereo not drawn) | 21.6%
CC1=C(C(=O)Nc2cc(C)ccc2C)C(c2cccs2)NC(=S)N1 (stereo not drawn) | 14%
CN(CCOc1ccc(Cl)cc1)C(=O)c1ccccc1SCC(=O)N1CCCC1 | -37.6%
Cc1noc(C)c1CSc1ccccc1C(=O)O | 23.8%
COc1ccc(CCNC(=S)N2CCN(S(=O)(=O)c3ccccc3)CC2)cc1 | 5.01%

Compound | hERG current change (%, negative = inhibition) at 10uM
CC1CN(C(=O)C2CC(=O)N(c3ccc(Cl)cc3)C2)CC(C)O1 (stereo not drawn) | -13.3%
CNc1nc(OC)nc(N2CCOCC2)n1 | 21.8%
CCSc1nc2c(cnn2-c2ccc(C)cc2)c(=O)[nH]1 | 17%
O=C(COC(=O)COc1cccc2ccccc12)NCC(F)(F)F | 20.6%
COc1ccccc1NS(=O)(=O)c1cc(NC(=O)CCC2CCCC2)ccc1N1CCOCC1 | 6.02%
C=CCN1N=C(c2ccc(Cl)s2)CSC1=O | 11%
Cc1ccc(COC(=O)c2ccc3c(c2)C(=O)N(CCCN2CCOCC2)C3=O)cc1 | -11.8%
CCCCC(=O)Nc1ccc(C(=O)NCCCn2ccnc2)cc1 | -7.39%
O=C(COCc1cc(-c2cccs2)on1)NC1CCCCC1 | 7.69%
Cc1ccc(Nc2nc3ccccc3n3cnnc23)c(Cl)c1 | 13.2%
COc1ccccc1NC(=O)CN1CCN(c2ccccc2)CC1 | -12.7%
Cc1cc(C)c2nc(SCC(=O)Nc3ccc(S(=O)(=O)N4CCCC4)cc3)c(C)cc2c1 | 0.939%
O=C(Nc1ccc2c(c1)CCCN2C(=O)c1cccs1)c1c(F)cccc1Cl | 4.67%
CCCC[n+]1cc(=N)o[n-]1.Cl | -2.78%
COc1ccc(C(=O)N2CCC(C(=O)N3CCN(Cc4ccccc4)CC3)CC2)cc1 | -9.58%
CCOC(=O)Cn1nc(CC)c2ccccc2c1=O | -9.57%
COc1cccc(-c2nnc(SCCC(=O)O)n2C)c1 | 2.27%
CC(C)CC(N=Cc1c(O)c2ccccc2oc1=O)C(=O)O (stereo not drawn) | 14%
C[C@H](NC(=O)c1nc[nH]c1C(=O)N[C@@H](Cc1ccccc1)C(=O)OCc1ccccc1)C(=O)OC(C)(C)C | -5.69%
CN(Cc1nc(-c2cnccn2)no1)CC1CCN(Cc2ccccc2)CC1 | -17.3%
N#CC(C#N)=CN=c1ccn(Cc2ccc(Cl)cc2Cl)cc1 | 7.39%
